No constants are given. Whether binding was seen depends on the method and setting. For part of these data: Binding seen in cells or lysates may run through a third protein. Some entries that bind do so weakly or less than the wild type.

The chains behind the UniProt entries cited, without tags or fusion partners. Where a name states a change or a piece, a line headed by the entry shows the natural chain unless it says otherwise.
UniProt P07091: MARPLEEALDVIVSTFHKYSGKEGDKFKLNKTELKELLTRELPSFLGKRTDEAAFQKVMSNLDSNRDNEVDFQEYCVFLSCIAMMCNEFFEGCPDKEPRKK
UniProt O08663: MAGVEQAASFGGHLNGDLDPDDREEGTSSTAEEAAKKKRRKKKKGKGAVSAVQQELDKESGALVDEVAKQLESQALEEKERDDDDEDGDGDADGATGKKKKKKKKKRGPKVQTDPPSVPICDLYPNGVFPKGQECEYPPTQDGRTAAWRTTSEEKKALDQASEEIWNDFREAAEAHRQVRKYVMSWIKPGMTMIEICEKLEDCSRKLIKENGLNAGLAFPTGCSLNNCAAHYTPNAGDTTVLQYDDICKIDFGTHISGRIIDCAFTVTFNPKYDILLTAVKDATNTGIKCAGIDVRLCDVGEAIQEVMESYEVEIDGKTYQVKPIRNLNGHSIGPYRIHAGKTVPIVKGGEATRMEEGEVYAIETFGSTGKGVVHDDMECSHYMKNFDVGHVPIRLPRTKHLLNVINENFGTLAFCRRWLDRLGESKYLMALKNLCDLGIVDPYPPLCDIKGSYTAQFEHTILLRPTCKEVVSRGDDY

The target in experiment [1] is GST-S100A4 fusion protein (UniProt P07091). Kind of experiment: condition: only without CaCl2 (SBD peptide 1 mmol/l); SPR; as a1 but running buffer without CaCl2; both purified.
For experiment [2] the target is unchanged. The experiment can be described thus: SPR; Biacore 3000, CM-5 chip; GST-S100A4 captured by immobilised goat anti-GST antibody (GST on the control cell, subtracted); SBD peptide 1 mmol/l injected in HBS-P (10 mmol/l Hepes pH 7.4, 150 mmol/l NaCl, 0.005% P20) with 1 mmol/l CaCl2, 25 °C, 5 minutes; both purified. A general note: In SPR one partner is held on a chip, and binding of the other changes the refractive index at the surface.

Experiment [3] has the same target. Kind of experiment: pull-down; competition in the GST pull-down: synthetic peptide at a 25-fold molar excess of [35S]MetAP2 added to GST/S100A4, 1 mmol/l CaCl2; both purified.
Another experiment concerns the target EYFP-S100A4 (UniProt P07091). Kind of experiment: FRET or BRET; acceptor-photobleaching FRET between ECFP and EYFP fusions cotransfected into live HeLa cells, 24 hours after transfection, LSM710 confocal microscope. A general note: Bioluminescence resonance energy transfer reports proximity on the nanometre scale.
Experiment [4] deals with GST-S100A4 fusion protein (UniProt P07091). Kind of experiment: pull-down; in vitro GST pull-down: [35S]MetAP2 incubated with GST/S100A4 fusion protein in 1 mmol/l CaCl2; with or without synthetic peptide at a 25-fold molar excess of MetAP2; only the target purified.
Experiment [5] has the same target. Kind of experiment: pull-down; in vitro GST pull-down: [35S]MetAP2 incubated with GST/S100A4 fusion protein in 1 mmol/l EDTA; only the target purified.

Turning to “SBD peptide (S100A4 binding domain of MetAP2, residues 170-229) (from UniProt O08663 170-229)”, the results for the binding result in experiment [1] and in experiment [2] were “no binding” and “binds”, respectively. “NBD peptide (N-terminal 39 residues of SBD, MetAP2 170-208) (from UniProt O08663 170-208)”: in experiment [3], the binding entry is “binds”. In the case of ECFP-MetAP2 (from UniProt O08663 2-478), the binding entry with EYFP-S100A4 is listed as “binds”. Take “[35S]MetAP2 (methionine aminopeptidase 2) (from UniProt O08663 1-478)”: the binding entry is listed as “binds” in experiment [4] and “no binding (condition: with 1 mmol/l EDTA)” in experiment [5].

As to “ECFP-NBD (from UniProt O08663 170-208) (domain or fragment)”, the binding result with EYFP-S100A4 is given as “binds”. For “ECFP-SBD (from UniProt O08663 170-229) (domain or fragment)”, the binding entry with EYFP-S100A4 was “binds”. With “ECFP-CBD (from UniProt O08663 192-229) (domain or fragment)”, in the experiment with EYFP-S100A4, the binding entry is on record as “no binding”.

The values above are taken from article PMC4445002, “Efficient inhibition of tumor angiogenesis and growth by a synthetic peptide blocking S100A4-methionine aminopeptidase 2 interaction” (Molecular Therapy. Methods & Clinical Development, 2015).
